# Measurements as given in the supplement of paper PMC7826260.
# The list shows a part of the results. Each Rep nickase domain was tested in vitro on the same pool of single strands at 3 µM enzyme and 37 °C for 1 h; the strands have 90 letters, of which the middle is given. Uncut reads are compared with the no-enzyme pool on a log2 scale; the lower, the more was cut; hits are not called. Because reads are shares of a total, they shift together; values above 0 arise when much of the pool is cut.
# Tests used:
# Assay in all cases: uncleaved DNA left, log2 of reads against the no-enzyme library (log2 ratio); higher = less cleavage (more negative = more Rep cleavage of the k-mer); sequences stand for … in CTCGTCCG…ACCGGAGA
# [1] = tested on: T1, Rep nickase domain of Muscovy duck circovirus
# T1 sequence (residues 1-111, tag not shown): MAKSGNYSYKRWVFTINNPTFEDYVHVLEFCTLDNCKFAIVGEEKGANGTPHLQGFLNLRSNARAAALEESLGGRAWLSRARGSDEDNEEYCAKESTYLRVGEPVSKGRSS
# Method: (§1)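 A pool of 90-nt single-stranded DNAs with seven random bases just before the constant AC of the nick site (name = the seven bases) was cut by 3 µM recombinant His6-SUMO-tagged Rep nickase domain (300 nM DNA, 50 mM HEPES pH 8.0, 50 mM NaCl, 1 mM MnCl2, 1 h, 37 °C, three replicates). Uncut DNA was amplified and sequenced.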
# [2] = tested on: T2, Rep nickase domain of banana bunchy top virus
# T2 sequence (residues 1-94, tag not shown): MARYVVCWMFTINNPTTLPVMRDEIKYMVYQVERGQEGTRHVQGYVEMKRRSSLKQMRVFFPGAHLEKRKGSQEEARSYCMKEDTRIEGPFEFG
# Method: as §1
# [3] = tested on: T3, Rep nickase domain of cabbage leaf curl virus
# T3 sequence (residues 1-116, tag not shown): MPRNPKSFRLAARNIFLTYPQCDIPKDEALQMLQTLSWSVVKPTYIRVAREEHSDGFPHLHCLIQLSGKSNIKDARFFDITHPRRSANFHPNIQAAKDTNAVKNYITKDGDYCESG
# Method: as §1
# [4] = tested on: T4, Rep nickase domain of chickpea chlorotic dwarf virus
# T4 sequence (residues 1-124, tag not shown): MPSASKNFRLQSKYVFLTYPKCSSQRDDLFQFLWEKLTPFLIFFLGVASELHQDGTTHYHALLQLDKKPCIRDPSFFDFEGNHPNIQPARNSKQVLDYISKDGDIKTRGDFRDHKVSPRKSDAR
# Method: as §1
# [5] = tested on: T5, Rep nickase domain of faba bean necrotic yellows virus
# T5 sequence (residues 1-98, tag not shown): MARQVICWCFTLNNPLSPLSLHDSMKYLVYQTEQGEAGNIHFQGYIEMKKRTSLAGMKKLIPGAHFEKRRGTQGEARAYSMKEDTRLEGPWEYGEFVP
# Method: as §1
# [6] = tested on: T6, Rep nickase domain of maize striate mosaic virus
# T6 sequence (residues 1-117, tag not shown): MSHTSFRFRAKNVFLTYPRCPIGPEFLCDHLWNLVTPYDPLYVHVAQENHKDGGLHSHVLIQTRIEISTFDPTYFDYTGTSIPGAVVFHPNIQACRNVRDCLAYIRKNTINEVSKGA
# Method: as §1
# [7] = tested on: T7, Rep nickase domain of porcine circovirus 2
# T7 sequence (residues 2-116, tag not shown): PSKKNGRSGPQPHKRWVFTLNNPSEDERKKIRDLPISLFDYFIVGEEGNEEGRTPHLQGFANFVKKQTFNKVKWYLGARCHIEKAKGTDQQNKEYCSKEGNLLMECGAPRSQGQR
# Method: as §1
# [8] = tested on: T8, Rep nickase domain of tomato golden mosaic virus
# T8 sequence (residues 1-124, tag not shown): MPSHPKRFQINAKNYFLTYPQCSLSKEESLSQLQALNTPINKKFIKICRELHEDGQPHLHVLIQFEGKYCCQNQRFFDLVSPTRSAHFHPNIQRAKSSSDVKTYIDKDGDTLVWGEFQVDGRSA
# Method: as §1
# [9] = tested on: T9, Rep nickase domain of tomato yellow leaf curl virus
# T9 sequence (residues 1-136, tag not shown): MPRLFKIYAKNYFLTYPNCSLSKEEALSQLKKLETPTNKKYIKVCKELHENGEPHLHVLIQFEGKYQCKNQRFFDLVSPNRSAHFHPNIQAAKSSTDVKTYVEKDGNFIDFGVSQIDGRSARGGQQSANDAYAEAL
# Method: as §1
# [10] = tested on: T10, Rep nickase domain of wheat dwarf virus
# T10 sequence (residues 1-137, tag not shown): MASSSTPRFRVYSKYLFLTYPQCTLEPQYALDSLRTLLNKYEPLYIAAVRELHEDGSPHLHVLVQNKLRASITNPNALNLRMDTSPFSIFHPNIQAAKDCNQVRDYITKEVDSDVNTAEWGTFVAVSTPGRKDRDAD
# Method: as §1
Sequence,uncleaved DNA left (log2) [1],uncleaved DNA left (log2) [2],uncleaved DNA left (log2) [3],uncleaved DNA left (log2) [4],uncleaved DNA left (log2) [5],uncleaved DNA left (log2) [6],uncleaved DNA left (log2) [7],uncleaved DNA left (log2) [8],uncleaved DNA left (log2) [9],uncleaved DNA left (log2) [10]
ACACACT,-0.0953,-0.11,-0.745,-2.68,0.0521,-0.995,-0.257,0.0204,-0.144,-0.424
AAGGCTG,0.0433,0.0165,0.402,1.65,-0.0689,1.77,0.247,0.0919,-0.17,0.203
TAGGTAG,0.00302,-0.0501,-0.706,-0.587,-0.0449,-1.14,0.0723,-0.0287,0.0814,-0.131
TGGTATT,-3.29,-1.78,0.162,-1.39,-1.94,1.42,-3.44,-0.131,0.104,-0.2
TCTGTTA,-0.0223,-0.0629,0.151,-0.794,-0.0925,-0.0476,-0.178,-0.0244,0.023,0.0271
GTCGCAT,-0.0565,0.133,0.522,1.15,-0.116,1.76,0.142,0.125,-0.00186,0.207
CAAGGCA,0.0767,0.0767,-0.00641,-0.0906,0.0435,-0.577,0.00622,-0.0077,0.0722,0.0617
GGGGAAT,0.174,0.214,0.99,2.29,0.0892,2.47,0.409,0.165,0.208,0.282
CCTTTTA,0.0892,0.0978,0.0702,-1.75,0.0492,-0.636,-0.131,-0.0219,-0.0889,-0.127
ACGGGCG,0.0727,0.046,-0.485,0.76,0.00394,0.168,0.186,0.0375,0.15,-0.0141
GCGTAGC,-0.0184,-0.0809,0.0644,0.448,-0.09,0.26,-0.015,0.0111,-0.0738,-0.0343
CTTGGGG,0.0589,0.0753,0.142,0.492,-0.0418,-0.026,0.22,0.0838,0.0167,0.0203
ATGGACT,0.122,0.0975,0.2,1.38,0.0186,1.81,0.124,0.0238,0.0432,0.138
GCACCTG,-0.0853,-0.0356,-0.119,0.229,-0.0761,0.322,-0.017,-0.0211,-0.186,0.0488
TAGGGTA,0.0893,-0.0618,0.406,0.707,-0.0994,1.6,-0.273,0.138,-0.102,0.102
CCATTCA,0.024,0.136,-0.345,-1.03,0.051,-1.01,0.0676,0.0991,0.239,0.0793
CCGCGAT,0.075,-0.0622,-0.102,-0.249,0.138,-0.196,0.04,-0.0179,-0.0152,-0.0639
TATCAAG,-0.0778,0.00291,-0.74,-0.767,0.0431,-1.35,0.11,-0.106,-0.118,-0.0642
CGAAACG,0.0515,0.101,-0.677,-0.349,0.125,-1.04,0.208,0.0293,0.113,-0.00786
TCTTAAT,-2.4,-0.276,-0.0381,-0.969,0.0159,-0.467,-3.39,0.0987,0.048,-0.102
ACGCCTT,-0.177,-0.058,-0.252,-1.66,-0.203,-0.308,-0.151,-0.0447,-0.153,-0.107
TACACTA,-0.0224,0.0167,-0.278,-2.69,0.0516,-0.642,-0.142,-0.00064,0.0458,0.0613
AGGAGCC,0.00511,-0.0877,0.0823,0.332,-0.0569,-0.175,-0.0204,-0.0896,-0.0548,0.0874
GCAATTA,-0.0277,0.0133,0.0761,-0.51,0.16,-0.116,-0.129,0.0522,0.0214,-0.0264
CACTTTT,-3.7,-3.25,-1.86,-2.82,-0.512,-1.08,-3.58,-0.563,-0.0428,-0.277
GCAACAA,-0.0534,0.125,0.162,0.418,0.0643,0.199,0.0637,0.0487,0.0951,0.129
GTGTCAG,-0.0113,0.114,0.16,0.464,-0.0179,-0.0169,0.171,0.0263,0.0941,-0.0327
CCCTAGG,0.128,0.235,0.636,1.2,0.23,1.12,0.0873,0.267,0.125,0.233
CGTTAAA,0.0337,0.0432,-0.0122,-0.074,-0.0211,-0.415,0.0478,0.114,0.0368,0.00272
AAGTAAG,-0.00294,-0.0561,-0.799,-0.652,0.0576,-1.04,0.0404,0.0794,0.0475,-0.0701
